Over roughly 110,000 compounds, “z-score” has its median near -0.1; the highest 2% begin near 2. Some of the results follow. The source made the active and inactive calls.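 How the source made its calls: active means z-score in the third read window above 3 or below -3; inactive means the rest.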
Each compound was assayed against Metabotropic glutamate receptor 8 (Rattus norvegicus) (UniProt P70579) (assay: mGluR8 Gi/Go-coupled signaling modulation – cell-based, rat, thallium flux, HTS, primary screen (AID 488969)). Settings: HEK293 rat mGluR8, GIRK (G protein-gated inwardly rectifying potassium channel) thallium flux, FluoZin2; at 10 µM; stronger effect = higher value; submaximal glutamate (EC20) added with thallium.
UniProt P70579, sequence (P70579 whole entry, looked up): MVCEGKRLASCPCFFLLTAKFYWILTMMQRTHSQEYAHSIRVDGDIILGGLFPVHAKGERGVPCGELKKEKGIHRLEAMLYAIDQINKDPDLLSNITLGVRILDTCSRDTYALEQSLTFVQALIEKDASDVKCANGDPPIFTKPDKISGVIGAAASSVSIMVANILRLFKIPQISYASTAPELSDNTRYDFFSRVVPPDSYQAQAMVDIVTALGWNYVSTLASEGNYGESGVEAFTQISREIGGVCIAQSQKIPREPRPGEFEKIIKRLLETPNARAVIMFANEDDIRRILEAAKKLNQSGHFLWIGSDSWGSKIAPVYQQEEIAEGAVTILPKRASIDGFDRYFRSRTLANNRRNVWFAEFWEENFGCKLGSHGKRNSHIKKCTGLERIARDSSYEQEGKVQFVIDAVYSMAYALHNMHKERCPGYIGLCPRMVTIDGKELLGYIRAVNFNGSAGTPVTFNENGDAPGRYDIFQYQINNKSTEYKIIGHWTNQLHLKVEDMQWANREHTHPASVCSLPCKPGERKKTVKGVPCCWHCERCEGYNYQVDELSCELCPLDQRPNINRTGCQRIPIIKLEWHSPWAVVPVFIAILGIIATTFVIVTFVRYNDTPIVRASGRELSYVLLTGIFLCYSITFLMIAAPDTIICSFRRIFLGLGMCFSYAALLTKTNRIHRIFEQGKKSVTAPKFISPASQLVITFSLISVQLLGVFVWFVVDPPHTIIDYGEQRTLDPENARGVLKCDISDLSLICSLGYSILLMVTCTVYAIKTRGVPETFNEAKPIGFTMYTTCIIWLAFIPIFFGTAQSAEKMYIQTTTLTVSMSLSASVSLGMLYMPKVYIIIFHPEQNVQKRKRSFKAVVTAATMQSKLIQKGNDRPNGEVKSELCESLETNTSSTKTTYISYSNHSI
In the case of NC(=O)N/N=C/c1c(F)cccc1F, the z-score was -0.119. With CC12CC(NC(=O)N1c1cccc(C(=O)N3CCN(c4ccccc4F)CC3)c1)c1ccccc1O2 (stereo not drawn) the z-score was 0.94. CC1=NCC(C)c2c1[nH]c1ccccc21 (stereo not drawn) was tested, and the z-score was -0.575. For CC(Oc1ccccc1Cl)C(=O)N1CCOCC1 (stereo not drawn), the z-score was -0.228. With CC(C)(C)NC(=O)NC(=O)CSc1nnc2ccccn12 the z-score was 0.0805. Compound CCCNC(=O)C12CCC(C)(C(=O)C1Br)C2(C)C (stereo not drawn) has a z-score of -0.133. Work on Cc1nn(Cc2ccccc2)c(C)c1NC(=O)CCCn1nc(C)c([N+](=O)[O-])c1C yielded a z-score of -0.199. For Cc1nc2c(-c3ccc(F)cc3)c(C)nn2c(C)c1CCC(=O)N1CCC(Cc2ccccc2)CC1, the z-score was -0.504. For COc1ccc(NC(=O)c2ccc3c(=O)n(Cc4ccco4)c(=S)[nH]c3c2)c(OC)c1, the z-score was 1.5. O=C(NCCCN1CCCCC1)c1ccc2c(c1)NC(=O)C(N1CCOCC1)S2 (stereo not drawn) gave a z-score of 0.108. COc1ccc(/C(O)=C2\C(=O)C(=O)N(Cc3ccco3)C2c2ccc(OC)cc2OC)cc1 (stereo not drawn) showed a z-score of -0.418. With CCN1C(=O)C(CC(=O)NCc2ccc(Cl)cc2)N(CC)C1=O (stereo not drawn) the z-score was -0.0134. CCC(C)(C)NC(=O)CC(c1ccc(OC)cc1)n1cccc1 (stereo not drawn) gave a z-score of 0.0297. Compound Cc1ccc(C(C)C)c(OCCNC(=O)c2cncc(Br)c2)c1 has a z-score of 0.9. With O=C(NCCN1CCCCC1)c1ccc(=O)oc1 the z-score was -0.572. For O=C(Cn1cncc1-c1ccc([N+](=O)[O-])cc1)Nc1cccc2ccccc12, the z-score was -0.199. CCOC(=O)c1c(C=O)c(C)n(Cc2ccccc2)c1C was tested, and the z-score was -0.461. Work on COc1ccccc1NC(=O)C1=C(C)N(c2ccccc2)C(=S)NC1c1cccc(C(F)(F)F)c1 (stereo not drawn) yielded a z-score of -0.126. COC(=O)Cn1c(C(F)(F)F)nc2ccccc21 was tested, and the z-score was -0.0297. In the case of Cc1ccc(NC(=O)CN2CCN(c3ccccn3)CC2)c(Cl)c1, the z-score was 0.0751. Compound Brc1cc2c(cc1/C=N/Nc1nc3ccccc3s1)OCO2 has a z-score of -0.128. Work on CCSc1nnc(Nc2ccccc2)s1 yielded a z-score of 0.582. Compound O=C(Nc1nnc(SCC(=O)N2CCCc3ccccc32)s1)c1cccc2ccccc12 has a z-score of -0.294. CCCCC1C(C#N)=C(C)NC2=C1C(=O)CC(C)(C)C2 (stereo not drawn) showed a z-score of -0.248. With NS(=O)(=O)c1ccc(N/C=C/C(=O)c2ccc(Br)cc2)cc1 the z-score was -0.0668. CC(=O)c1c(C)n(CC(=O)NCc2ccc3c(c2)OCO3)c2ccccc12 gave a z-score of 0.0406. In the case of CN(C)c1nc2c(c(N)nn2-c2ccc(Cl)cc2)c(=O)o1, the z-score was 0.013. S=c1[nH]nc(-c2ccco2)n1/N=C/c1ccc(Br)s1 was tested, and the z-score was active: 4.39. With COc1ccccc1Cc1noc(-c2cc(Cl)ccc2OC)n1 the z-score was -0.104. In the case of S=C(N/N=C/c1ccc(Cl)cc1)N1CCOCC1, the z-score was active: 11.9. Compound CCn1c(SCc2ccc(C(=O)OC)o2)nnc1-c1c[nH]c2ccccc12 has a z-score of -0.0117. Compound CCOc1cc(S(=O)(=O)Nc2cc(C)cc(C)c2)ccc1Cl has a z-score of -0.0728. OC(COc1ccccc1)CN1CCN(c2ncccn2)CC1 (stereo not drawn) showed a z-score of -0.153. For O=C(NCc1ccco1)c1noc2c1CCCC2, the z-score was -0.00444. COC(=O)c1ccccc1Oc1c(F)c(F)nc(N2CCOCC2)c1F showed a z-score of -0.674. COc1cccc(Nc2c(F)c(F)c(F)c(F)c2C(=O)O)c1 showed a z-score of -0.326. In the case of CCOc1ccc(N(CC(=O)NC(C)(C)C)C(=O)c2ccco2)cc1, the z-score was -0.0245. CC1CCc2sc(C(=O)N=Nc3c(O)[nH]c4ccccc34)cc2C1 (stereo not drawn) gave a z-score of 0.647. With CCCCCOC(=O)CSc1nc2c(c(=O)[nH]c(=O)n2C)n1CCc1ccccc1 the z-score was -0.0691. In the case of CC12CC3(C)CC(C)(C1)CC(C(=O)NC1=NCCS1)(C2)C3, the z-score was -0.201. Compound C/C(=N\NS(=O)(=O)c1ccccc1)c1ccc2c(c1)OCCO2 has a z-score of -0.182. For CCOC(=O)C1=C(C)NC2=C(C(=O)CCC2)C1c1cccnc1 (stereo not drawn), the z-score was -0.578. For O=C(C1CC1)N1CCN(c2nc3ccccc3s2)CC1, the z-score was -0.217. For CCc1nc(N2CCCCC2)c2oc3ccccc3c2n1, the z-score was -0.161. With Cc1cccc(C)c1NC(=O)CSc1ncnc2nc[nH]c12 the z-score was 0.206. With CCSc1nc(O)cc(=O)n1-c1ccc(OC)cc1 the z-score was -0.15. O=C(CSCc1ccc(Cl)cc1)N1CCCCC1 showed a z-score of -0.424. For Nc1nnc(SCc2ccc(Cl)cc2)s1, the z-score was -0.195. Cc1ccc(-c2noc(CNc3ccccc3)n2)cc1 was tested, and the z-score was -0.0581. With CCn1cc(CNC(=O)c2cc(-c3ccccc3OC)nc3ccccc23)c(C)n1 the z-score was -1.03. Work on CCCc1nc2c(C)cc(C)cc2c(N)c1CC yielded a z-score of 0.451. With O=[n+]1c2c(n([O-])c3cc(Br)ccc31)CCCC2 the z-score was 0.682. With CCCCc1nc(SCC(=O)Nc2cc(C)on2)n[nH]1 the z-score was 0.784. O=C(CCCCn1c(=O)c2ccccc2n(CC(=O)NC2CCCC2)c1=O)NC1CCCC1 showed a z-score of -0.424. Cc1ccc2cc(C(c3nnnn3Cc3ccccc3)N3CCc4ccccc43)c(=O)[nH]c2c1C (stereo not drawn) gave a z-score of -0.173. Work on COc1ccccc1C1CC(c2cccs2)=Nc2ccccc2S1 (stereo not drawn) yielded a z-score of 0.137. Compound Cc1c(Cl)cccc1N(CC(=O)O)S(C)(=O)=O has a z-score of -0.0663. Compound Cc1cccc(C(=O)N2CCN(c3ncnc4c3cnn4-c3ccccc3)CC2)c1 has a z-score of -0.609. In the case of Cc1ccccc1NC(=O)c1onc2c1CCCC2, the z-score was 0.0884. Compound CCN1CCn2c3c(c4cc(Cl)ccc42)CCCC31 (stereo not drawn) has a z-score of 0.093. Compound CCS(=O)(=O)N1CCN(S(=O)(=O)c2ccccc2)CC1 has a z-score of 0.446. Work on Oc1ccccc1-c1nc(/C=C/c2ccccc2)nn1-c1ccccc1 yielded a z-score of -1.33. C=CCn1c(C)cc(C(=O)CSc2nc3ccccc3c(=O)[nH]2)c1C gave a z-score of -0.383. For CC(NC(=O)/C=C/c1cnc2ccccc2n1)C12CC3CC(CC(C3)C1)C2 (stereo not drawn), the z-score was -0.0601. COCCn1c(=S)[nH]c2cc(C(=O)NC(C)C)ccc2c1=O was tested, and the z-score was 0.0406. For Cn1c(CC2C(=O)Nc3ccc(Br)cc32)nc2ccccc2c1=O (stereo not drawn), the z-score was -0.0123. For Cc1ccc2[nH]c(=O)c(-c3noc(C(C)C)n3)cc2c1, the z-score was -0.0854. CCN(CC)C(=O)COC(=O)c1cc(-c2ccc(OC)cc2)nc2ccccc12 showed a z-score of -0.353. C=CCN1C(=O)C(O)(CC(=O)c2ccc(N)cc2)c2ccccc21 (stereo not drawn) was tested, and the z-score was 0.37. Compound CCN(CC)CCn1c(NCc2ccccn2)nc2ccccc21 has a z-score of -0.287. In the case of O=C1NC(c2ccccc2)(C(F)(F)F)C(=O)N1Cc1cccnc1 (stereo not drawn), the z-score was 0.162. In the case of CCNc1nc(NC(C)(C)C)nc(N(C#N)CC)n1, the z-score was -0.694. N/C(Cc1ccccc1Sc1ccccc1)=N\O showed a z-score of 0.173. O=C(NC(=S)NCC1CCCO1)c1ccccc1Br (stereo not drawn) gave a z-score of 1.6. With O=C(N1CCN(Cc2ccccc2)CC1)C12CC3CC(CC(C3)C1)C2 the z-score was 0.408. C=CCN(c1ccc(C(=O)NC(C)C)cc1)S(C)(=O)=O gave a z-score of 0.0929. Work on Cc1ccc(C)c(-n2c(Cc3cc(=O)[nH]c(=O)[nH]3)nnc2SCC(=O)NCC2CCCO2)c1 (stereo not drawn) yielded a z-score of -0.284. In the case of CC1(c2cc(C(F)(F)F)n3nc(C(=O)O)cc3n2)CC1, the z-score was 0.169. With Cc1c(C(=O)N2CCCC2)sc(NC(=O)c2ccc(Cl)cc2)c1C#N the z-score was -0.559. COc1ccc(CCNC(=O)Cc2cc(=O)[nH]c(=O)[nH]2)cc1OC was tested, and the z-score was -0.0178. In the case of Cc1ccnc(SCCn2c(N3CCN(c4ccccc4)CC3)nc3c2c(=O)[nH]c(=O)n3C)n1, the z-score was 0.404. In the case of O=c1c2ccccc2c(/C=N/c2ncn[nH]2)c(O)n1Cc1ccccc1, the z-score was -0.573. In the case of COc1ccc(OC(C)C(=O)N2CCN(c3ccccn3)CC2)cc1 (stereo not drawn), the z-score was -0.0836. With COc1cc(Cl)c(C)cc1NC(=O)CSc1nc2ccccc2o1 the z-score was -0.0204. O=C(NC1CCN(C(=S)NCc2ccco2)CC1)C12CC3CC(CC(C3)C1)C2 was tested, and the z-score was 0.097. CCn1cc(C(=O)NCc2ccco2)c(=O)c2cc(S(=O)(=O)N3CCC(C)CC3)ccc21 gave a z-score of -0.818. Cc1ccc2nc(-c3ccco3)c(Nc3ccccc3)n2c1 was tested, and the z-score was -0.0781. With CCN(CC)c1ccc(/C=N/NC(=O)OC)c(O)c1 the z-score was -0.291. COC(=O)[C@@H](NC(=O)Nc1ccc(OC)cc1)C(C)C was tested, and the z-score was 1.12. Work on Cc1nn(-c2ccccc2)c(C)c1/C=N\NS(=O)(=O)c1ccc(Cl)cc1 yielded a z-score of 0.0428. Work on COc1ccc(N2C(=O)C3ON(C4SC(=S)N(C)C4(C)C)C(c4ccc(Cl)cc4)C3C2=O)cc1 (stereo not drawn) yielded a z-score of 0.0166. CCOC(=O)c1ccc2nc(NC(=O)c3ccco3)sc2c1 gave a z-score of -0.0743. N#Cc1cc(C(=O)c2cc(F)ccc2O)cn(-c2nccs2)c1=O was tested, and the z-score was -1.86. O=C(Nc1cccnc1)c1cccs1 was tested, and the z-score was -0.52. Cc1ccc(S(=O)(=O)NC(C)C(=O)Nc2ccc(C(N)=O)cc2)cc1 (stereo not drawn) showed a z-score of -0.0827. Compound Cn1c(Cc2cccc3ccccc23)nnc1SCC(=O)N1CCN(c2cccc(Cl)c2)CC1 has a z-score of -0.267. Work on Nc1nnc(SC2CC(=O)N(c3ccccc3)C2=O)s1 (stereo not drawn) yielded a z-score of -0.766. CC(=O)c1c(C)nc(-c2ccccc2)nc1NC(=O)C(C)C gave a z-score of -0.0538. Work on CCOc1cc(CNCCCN2CCOCC2)ccc1OCC(=O)Nc1cccc2ccccc12 yielded a z-score of -0.63. For Cc1ccc(C(=O)O/N=C/c2c(N3CCOCC3)n(C)c3ccccc23)cc1, the z-score was -0.0587. Compound Cc1nc2scc(-c3cccs3)c2c(=O)n1N has a z-score of -0.0936. In the case of COc1ccc(C(C)NC(=O)c2ccccc2)cc1 (stereo not drawn), the z-score was 1.03. CCOc1ccccc1N1CCN(C(=O)C(Sc2ccccc2)c2ccccc2)CC1 (stereo not drawn) showed a z-score of -0.253. CCOCCCn1c(SCC(=O)/C(C#N)=C(\C)N)nc2ccccc2c1=O gave a z-score of -0.243. Compound CC(=O)Nc1ccccc1/C=C/c1ccc2c(C)cc(C)c(O)c2n1 has a z-score of -0.0315. COC(=O)c1cc(Br)c(=O)n(Cc2ccc3c(c2)OCO3)c1 showed a z-score of 0.208. CCOc1ccc(OCC)c(NC(=O)C2CCN(S(=O)(=O)c3cccnc3)CC2)c1 gave a z-score of -0.513. Compound COc1ccccc1-c1nc2n(n1)C(c1ccc(Cl)cc1)C(C(N)=O)=C(C)N2 (stereo not drawn) has a z-score of -1.08. COC(=O)c1c(NC(=O)c2ccccc2)sc(C(=O)c2ccccc2)c1C gave a z-score of 0.0535. In the case of CC(C)(O)C(=O)NN(C(=O)c1ccccc1)c1ccc2ccccc2c1, the z-score was 0.345. In the case of COc1ccc(OCCCC(=O)Nc2ccc(N3CCCCC3)cc2)cc1, the z-score was -0.122. Work on C/C(=C(\C#N)C(=O)NC1CCCCC1)N(C)C yielded a z-score of 0.22. Work on CCOc1cc(NC(=O)c2ccco2)c(OCC)cc1NC(=O)CCC(=O)NCc1cccnc1 yielded a z-score of -0.676.

From PubChem BioAssay AID488969 (Vanderbilt High Throughput Screening Facility, 2010)
